Assay results reported in the supplement of paper PMC11417369.
Some of the results follow.

The sequences below were run on PfSIP2 AP2 domain 1 (GST-tagged) (assay: gcPBM binding intensity (ln(normalized median fluorescence intensity)); higher = stronger DNA binding).
Method in brief: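 Using an Agilent 4 × 180k array, primer-extended double-stranded 36-bp intergenic genomic probes and negative controls were exposed for 1 h to GST-fused P. falciparum DNA-binding domains expressed in E. coli. Binding was carried out in 1× PBS with 1% milk, 0.2 mg/ml BSA, 0.5% salmon testes DNA and 0.03% Triton X-100, and protein was detected with Alexa488 anti-GST antibody and a 488 nm scan. Binding intensity is the highest Masliner-normalised natural-log median intensity across replicate spots of either probe orientation.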

Sequence	gcPBM binding intensity (ln)
TATAACAAATAAAAATGTACATATATATAATATATA [XGTACX_site6173]	7.31
ATAATACCAGAATAGATTTAAATGAATATTTTATTT [CACACA_negctrl_site476]	6.75
ATGATATATTTAATAGTGCACTAATTAAAATTATTA [GTGCAC_site9418]	11
TAGTTAGCCCAAGGGGTGCTAATTACTATCTAAATA	9.4
CATACATATAAACACACACACACACCCACCCACAAA [CACACA_site8059]	7.18
AACACCAATTCATATGCACACACATCTGCATATTAT [CACACA_site8523]	7.29
TTTATAAATATTCTCACACACTTTTTATTTTAACAA [CACACA_site6454]	6.93
TATAGAAGCAAATTATGTACACAATATGGAAAATCA [XGTACX_site3345]	7.14
GTCGAGGATATATAAAGTACATATATATATATGATA [XGTACX_site1128]	7.2
TAATGTATCTAAAATTGTACAAATATAAATATAAAT [XGTACX_site2764]	7.04
CACTAAATAAGGAAAGTGCATAAAATAAAGGTTATA [GTGCAC_site9793]	8.18
TAGTTACCTTAATATTGTACTTTTCTTTCATATATG [XGTACX_site1309]	7.02
GTGTCAAATTTTATAACACACAAAAGGTTATATAAG [CACACA_site7839]	6.93
ATAGTTTCTGGTAGCTGTACGAGTCGTAGAGTGCAG [XGTACX_site2022]	8.33
TACAGTTTTTCTTTGAATTTATCAAGTTTTTTTCCC [XGTACX_negctrl_site60]	6.71
ATTTAAAAAATATATTGTACATATTTTATTATGTTT [XGTACX_site2984]	6.85
AAAAAAAAATTGTGTACACATAATTATATCATATGT [CACACA_site4500]	7.01
ATGGATAATAAGTTTACACACAAAAAAAAAGAAAAA [CACACA_site861]	6.9
ATAAGAATCATATTTAAACACACATACATATATATA [CACACA_site9106]	7.5

Sequence	gcPBM binding intensity (ln)
ATTAAATAAACCATTACACACTTTTATGTTTTGAAA [CACACA_site1143]	7.01
TTTTTATTGGTGAATACACACGTATATATATATTAT [CACACA_site8756]	7.17
AAAAAAAAAAAATACACACACATAAAAAAAAAAATA [CACACA_site1858]	7.15
ATTATATTAACAATGACATGCAATTCTTAATCCTTA [TGCATGCA_site648]	6.88
CACAAACAAAAACACACACACACACCGACAAAAATG [CACACA_site5362]	7.03
AGAAAGAAGATATATACACACAAAAAAAGATATATA [CACACA_site6779]	6.89
AAAAGAAGATAATACAGTACAGAATAATATAAAATA [XGTACX_site5962]	6.91
TATAAATATTTATACACACACACATTAATACCTATA [CACACA_site7604]	7.19
TTCTTTCTAGAATATTGTACATATATTGTTATTATA [XGTACX_site8425]	7.11
AAATAAAATAAATAATATAAAATAATATATAAAAAA [CACACA_negctrl_site1777]	6.67
TTTTGTTAAAAAGATGTATATTTTATAAATATTTAT [CACACA_negctrl_site101]	6.81
TAAAGAGAGACATCAACACACATACGTATGTATAGA [CACACA_site4896]	6.72
AATATATTGTTTCCTGATATTAAATTCAATTTAATG [GTGCAC_negctrl_site22]	6.91
ATTTACCTATATATTTGTACTTACATAATGCTACCT [XGTACX_site2693]	7.09
TAAAAAAAAATATATAAACACACATATTTATATACA [CACACA_site8469]	6.68
CCAATGTTTTCTTGTGTACACATCATTAAAGAAAAA [CACACA_site5300]	7.96
ATTCTATATGAAAAATGTACAAATAAAAATTCTAAG [XGTACX_site8900]	7.03
CACGCATACAGACACACACACACACCGATATATATA [CACACA_site8113]	7.36
CATGAAAATATTATGTGTACTTAATGCACATTCAAA [XGTACX_site1952]	7.35

Sequence	gcPBM binding intensity (ln)
AAAAAAAAACAAAAAAGTACAAAATAAAAATACGTT [XGTACX_site4566]	6.97
CTCTTCATATATAATTGTACACACAAAAACGACATT [XGTACX_site4287]	7.73
TATATATATTTTGGCTGTACATCAGCGTATATTTTT [XGTACX_site3233]	6.98
AATAAATATATACATTGTACATATATAATATATATA [XGTACX_site1458]	7.44
TAAATTATAATATGCACACAAAATGTTATATTAAAA [CACACA_site376]	7.01
CCTATCCATGCATATACACACATATCTATTTATATA [CACACA_site6886]	7.8
TACAAATATATATGCACACACATATACATACAGATA [CACACA_site5238]	7.27
CATATATACGCATACACACACACACCCACACCCACA [CACACA_site1725]	7.35
TGATGAAAATCTACATGAATGTTTTTATATCTATAT [GTGCAC_negctrl_site139]	6.73
TATTTATACCTATACACACACACACGGATATTTATA [CACACA_site7123]	7.01
GATAAAATCACTGGTGCATGTAGATATATAATATTA [TGCATGCA_site589]	10.5
ATATGCTTATTGTAAAGTACATTATTATTTTTCCTA [XGTACX_site5479]	6.83
AATTAACAAAAACACACACACACACCGACAAAAAAA [CACACA_site4444]	7.3
ATGAATAAATAAGACACACACGAAAATAAGTAAAAA [CACACA_site4216]	7.09
TATTTTGATTATTCAGTGTATAAATATATATATATA [CACACA_negctrl_site545]	8.66
AACAGGTCATAATTTACACACTATATATTTTATTAT [CACACA_site670]	7.02
AGAAAACATATGTTTTGTACTTAAGAAAAAAAAAAA [XGTACX_site4231]	6.88
TAACATATGGGACACACATGCAACTGTTATATGTCC [TGCATGCA_site959]	6.82
